# The other results are listed elsewhere or left out.
# B1: PX9961V-pdi-562-26-562 (Parabacteroides distasonis) (protein)
# chain: EIFSEITTDNYYQNSNNIYAALVNNYAKAFSTGWSDARYFLQEVTADQLMIPTRGKHGYNGGEYVRLHEHKWTVEENFVYNGWAAPFQGIALCNNTLSDFENLDFSTFKLTEETKNEYIAELRALRVWNYMFLIDFFRHVPIVTDIEEVKAQSTPLEVFNFMESELLAILPDLPKNRGVSRFDQAGVASILVRLYLNAEKWIGISKYDECEQMAQAILDGKYGEYSIDPDYRGPFRSGINGYRSKENIMEFAIKKNYFEASWLYNMWMHYQDRYSLDNDWQGWNGGNLAPSRDLYGNLYQDKLGMPFEKFPDGDIRKKAFRVISNDGDYEGFFLMGTQYKFDYEKGYGFTDEVITGTEEYNGKPLVYVDQVGRFSEGETGLAKGSHVIYGEENTGYRLIKFPWLPQSKDLFQMNSIPEIRLAEIYYSLAECKYRSGDKIGAARLLDVVRKRYYKAEDWSKFSYESNISKLTDDEFVDELGREFIGERHRRIDLIRWNRFSEGAWWDKTPDATNQDVFPIPYRALNANPLLKQTTAGF
# Experiments:
# Assay in all cases: glycan array binding signal (z-score within array); higher = stronger binding
# Details in all cases: glycan notation: IUPAC condensed, linker removed
# [1] = biological target: Fuc(a1-2)Gal(b1-4)GlcNAc(b1-3)Gal(b1-4)GlcNAc(b1-3)Gal(b1-4)GlcNAc
# In short: (§1)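 Columns mapping to the same glycan were averaged after glycan names were converted to IUPAC-condensed notation. The data come from 3228 arrays in the Consortium for Functional Glycomics database, limited to those with an available protein sequence. Binding is reported as a within-array Z-score averaged across arrays of one protein sequence and across linkers.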
# [2] = biological target: Fuc(a1-2)Gal(b1-4)GlcNAc(b1-3)GalNAc
# In short: as §1
# [3] = biological target: Fuc(a1-2)Gal(b1-4)GlcNAc(b1-3)[Fuc(a1-2)Gal(b1-4)GlcNAc(b1-6)]GalNAc
# In short: as §1
# [4] = biological target: Fuc(a1-2)Gal(b1-4)GlcNAc(b1-3)[Fuc(a1-3)[Gal(b1-4)]GlcNAc(b1-6)]Gal(b1-4)Glc
# In short: as §1
# [5] = biological target: Fuc(a1-2)Gal(b1-4)GlcNAc(b1-6)GalNAc
# In short: as §1
# [6] = biological target: Fuc(a1-2)Gal(b1-4)GlcNAc6S
# In short: as §1
# [7] = biological target: Fuc(a1-2)Gal(b1-4)[Fuc(a1-3)]GlcNAc
# In short: as §1
# [8] = biological target: Fuc(a1-2)Gal(b1-4)[Fuc(a1-3)]GlcNAc(b1-2)Man(a1-3)[Fuc(a1-2)Gal(b1-4)[Fuc(a1-3)]GlcNAc(b1-2)Man(a1-6)]Man(b1-4)GlcNAc(b1-4)[Fuc(a1-6)]GlcNAc
# In short: as §1
# [9] = biological target: Fuc(a1-2)Gal(b1-4)[Fuc(a1-3)]GlcNAc(b1-2)[Fuc(a1-2)Gal(b1-4)[Fuc(a1-3)]GlcNAc(b1-4)]Man(a1-3)[Fuc(a1-2)Gal(b1-4)[Fuc(a1-3)]GlcNAc(b1-2)Man(a1-6)]Man(b1-4)GlcNAc(b1-4)GlcNAc
# In short: as §1
# [10] = biological target: Fuc(a1-2)Gal(b1-4)[Fuc(a1-3)]GlcNAc(b1-3)Gal(b1-4)[Fuc(a1-3)]GlcNAc
# In short: as §1
# [11] = biological target: Fuc(a1-2)Gal(b1-4)[Fuc(a1-3)]GlcNAc(b1-3)Gal(b1-4)[Fuc(a1-3)]GlcNAc(b1-3)Gal(b1-4)[Fuc(a1-3)]GlcNAc
# In short: as §1
# [12] = biological target: Fuc(a1-2)Gal(b1-4)[Fuc(a1-3)]GlcNAc(b1-3)GalNAc
# In short: as §1
# [13] = biological target: Fuc(a1-2)Gal(b1-4)[Fuc(a1-3)]GlcNAc(b1-3)[Neu5Ac(a2-6)Gal(b1-4)GlcNAc(b1-6)]Gal(b1-4)Glc
# In short: as §1
# [14] = biological target: Fuc(a1-2)Gal3S(b1-4)GlcNAc
# In short: as §1
# [15] = biological target: Fuc(a1-2)Gal6S(b1-3)GlcNAc
# In short: as §1
# [16] = biological target: Fuc(a1-2)Gal6S(b1-3)GlcNAc6S
# In short: as §1
# [17] = biological target: Fuc(a1-2)Gal6S(b1-4)Glc
# In short: as §1
# [18] = biological target: Fuc(a1-2)Gal6S(b1-4)Glc6S
# In short: as §1
# [19] = biological target: Fuc(a1-2)[Gal(a1-3)]Gal
# In short: as §1
# [20] = biological target: Fuc(a1-2)[Gal(a1-3)]Gal(b1-3)GalNAc
# In short: as §1
# [21] = biological target: Fuc(a1-2)[Gal(a1-3)]Gal(b1-3)GalNAc(b1-3)Gal(a1-4)Gal(b1-4)Glc
# In short: as §1
# [22] = biological target: Fuc(a1-2)[Gal(a1-3)]Gal(b1-3)GlcNAc
# In short: as §1
# [23] = biological target: Fuc(a1-2)[Gal(a1-3)]Gal(b1-3)GlcNAc(b1-2)Man(a1-3)[Fuc(a1-2)[Gal(a1-3)]Gal(b1-3)GlcNAc(b1-2)Man(a1-6)]Man(b1-4)GlcNAc(b1-4)GlcNAc
# In short: as §1
# [24] = biological target: Fuc(a1-2)[Gal(a1-3)]Gal(b1-3)GlcNAc(b1-2)Man(a1-3)[Fuc(a1-2)[Gal(a1-3)]Gal(b1-3)GlcNAc(b1-2)Man(a1-6)]Man(b1-4)GlcNAc(b1-4)[Fuc(a1-6)]GlcNAc
# In short: as §1
# [25] = biological target: Fuc(a1-2)[Gal(a1-3)]Gal(b1-3)GlcNAc(b1-3)GalNAc
# In short: as §1
# [26] = biological target: Fuc(a1-2)[Gal(a1-3)]Gal(b1-3)GlcNAc(b1-6)GalNAc
# In short: as §1
# [27] = biological target: Fuc(a1-2)[Gal(a1-3)]Gal(b1-4)Glc
# In short: as §1
# [28] = biological target: Fuc(a1-2)[Gal(a1-3)]Gal(b1-4)GlcNAc
# In short: as §1
# [29] = biological target: Fuc(a1-2)[Gal(a1-3)]Gal(b1-4)GlcNAc(b1-2)Man
# In short: as §1
# [30] = biological target: Fuc(a1-2)[Gal(a1-3)]Gal(b1-4)GlcNAc(b1-2)Man(a1-3)[Fuc(a1-2)[Gal(a1-3)]Gal(b1-4)GlcNAc(b1-2)Man(a1-6)]Man(b1-4)GlcNAc(b1-4)GlcNAc
# In short: as §1
binder,measurement,setting,value
B1,glycan array binding signal (z-score),[1],-0.793
same,glycan array binding signal (z-score),[2],0.298
same,glycan array binding signal (z-score),[3],0.07
same,glycan array binding signal (z-score),[4],-0.564
same,glycan array binding signal (z-score),[5],0.625
same,glycan array binding signal (z-score),[6],-0.281
same,glycan array binding signal (z-score),[7],-0.388
same,glycan array binding signal (z-score),[8],-0.343
same,glycan array binding signal (z-score),[9],-0.424
same,glycan array binding signal (z-score),[10],-0.46
same,glycan array binding signal (z-score),[11],-0.163
same,glycan array binding signal (z-score),[12],2.64
same,glycan array binding signal (z-score),[13],-0.55
same,glycan array binding signal (z-score),[14],-0.495
same,glycan array binding signal (z-score),[15],-0.543
same,glycan array binding signal (z-score),[16],0.224
same,glycan array binding signal (z-score),[17],-0.048
same,glycan array binding signal (z-score),[18],-0.487
same,glycan array binding signal (z-score),[19],-0.538
same,glycan array binding signal (z-score),[20],-0.584
same,glycan array binding signal (z-score),[21],-0.226
same,glycan array binding signal (z-score),[22],-0.504
same,glycan array binding signal (z-score),[23],-0.108
same,glycan array binding signal (z-score),[24],0.192
same,glycan array binding signal (z-score),[25],-0.468
same,glycan array binding signal (z-score),[26],-0.074
same,glycan array binding signal (z-score),[27],-0.228
same,glycan array binding signal (z-score),[28],-0.677
same,glycan array binding signal (z-score),[29],-0.182
same,glycan array binding signal (z-score),[30],3.45

# Source: the supplement of paper PMC8728848
